Laboratory results: the supplement of paper PMC11417369
This is one part of the list.

The sequences below were run on PfHDP1 homeodomain (GST-tagged) (assay: gcPBM binding intensity (ln(normalized median fluorescence intensity)); higher = stronger DNA binding).
How it was run: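 An Agilent 4 × 180k array of primer-extended double-stranded 36-bp intergenic genomic probes, with negative controls, was incubated for 1 h with GST-tagged P. falciparum DNA-binding domains expressed in E. coli. Alexa488 anti-GST antibody detected bound protein, scanned at 488 nm. Binding intensity is the highest Masliner-normalised natural-log median intensity across replicate spots of either probe orientation.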

Sequence	gcPBM binding intensity (ln)
ATAAAAATGGTGTTAACACACACATATATATATATA [CACACA_site8089]	9.28
TTATTTAAATATTGATGTACTCTCCTTATTATAATA [XGTACX_site1240]	6.76
ATATATTAACAAAAGGTGCTTTTGGCAAAGTATAAT	6.65
ATTATATTTATGTTGGTGCATTATACATGAAATTTA	10.5
AATATAATACAATATTGTACATAATATAAATTAAAA [XGTACX_site4064]	6.58
ATGTCATAAATGTACGCACACATACATAAACATATA [CACACA_site4530]	6.97
TTCATTTTAATTTCCAGTACACATATATATACATAT [XGTACX_site558]	6.93
ATTTATTTCTATAATACACACAAATATCTTAATTAA [CACACA_site7801]	6.3
AATAAAAAAATAAAATGTACATACAAATAAATAAAT [XGTACX_site5153]	6.66
TGCAACAAAATAAACACACACACACCCCCACAAAAA [CACACA_site3388]	8.22
TATTTTAATGAAGCATTTAAGGGAAAAAAAAAAAAA [TGCATGCA_negctrl_site606]	6.49
TTATACTGTTTCAGAAAAATAAAGAATGAAAGTATT [XGTACX_negctrl_site230]	6.82
TTTTTATATTCCCCCAGTACATATATAATAGTAGTA [XGTACX_site7927]	8.08
TTAATTAAAATTTATACATGCATAAAAGAAATACAC [TGCATGCA_site537]	7.3
ATTACATGTTACTTAACACACATCTGGTGAAATAAT [CACACA_site171]	6.53
GTAATGAAACATTGCACACATATAATAATATAATAT [CACACA_site1422]	9.86
ATTTTTTTCTTTTCTTTTTTCTTTTTTTTTTTTGGT [CACACA_negctrl_site1146]	5.87
GTATACCAACATATTATACACACCTTTATATTTTTT [CACACA_site2153]	6.73
TTTAAGAGTTGCACACGTACAAAAAAAAAAAAAAAA [XGTACX_site7406]	9.8
ATAAGATGATGGAACTGTAATATATATATATATATA [CACACA_negctrl_site839]	9.21
TTGTATACATAAAATGGTACAGAATATATAATTCTA [XGTACX_site7236]	6.27
ATATATATGCATATATGTACTTAAAATATAAAGGCA [XGTACX_site3256]	6.64

Sequence	gcPBM binding intensity (ln)
TTTACGCTATAGGAGAGTACTTATAAAATCCTGTGT [XGTACX_site2364]	6.29
TTCATATATTTTAAAGCATGCATTCATCTTATAGTT [TGCATGCA_site800]	6.44
AGACGAAAATAATAAAGTACTAAAAAAAAAAAAAAA [XGTACX_site927]	6.34
TACAAAATATATATGACACACACAAAAAAAGTATAT [CACACA_site8455]	6.83
TATTTTTCCATTGGGGGTACATGTGTTATATTTATT [XGTACX_site5914]	8.68
TACCTAAATAAATGGACACACACATATATATATATA [CACACA_site8407]	9.32
TTATAGCCTGTGAAGAGTACATTTTTATTTTTTATT [XGTACX_site4105]	6.23
AAGTAATACAACACGCACATATATATATATATATAT [GTGCAC_negctrl_site89]	9.41
TATTTTTAAATATAAAGTACTTATATTAACTACGAA [XGTACX_site1524]	6.21
ATTTTTTCTGTCTTAATTGGACCCACTGCAAATGGG [CACACA_negctrl_site1158]	6.22
TTGTTAATAAATAAATAAATAAATATATTTATATAT [GTGCAC_negctrl_site271]	6.01
TTAATTATTATATAAGTGCAATAATAAAAAGTTGTA [GTGCAC_site9552]	9.36
TGATTTTTTCATATTCTACACACGTGAACAAATGTG [CACACA_site8987]	6.4
AAAAAAAAAAAACACACACACACACCCATACATACA [CACACA_site707]	6.78
AGACAAAATGTTTGAAGTACTTTTTATCAAATTAAA [XGTACX_site8885]	6
TTATCAATAAAATGCACACACTGTAATATTATTAAA [CACACA_site6055]	10.2
ATTTAAAACAAAAGTAGTACGTCTAATAAATTCAAC [XGTACX_site4344]	6
ATATATATTTATATTTGTACGAATTAAAATTTTTTA [XGTACX_site5200]	6.42
ATAGCTTTTATTTAAAGTACAAAAAGGATGTTGAAA [XGTACX_site3810]	6.23
TATATGTATGTATGTACACACAAAAAATGGAATATA [CACACA_site3717]	7.19
AGGGAATAAGTAAGGTGTACATAATTATGTTACTTT [XGTACX_site6152]	6.67
TTTTTTTATTTTATAAAGCAAAAATAAGAATGAAAT [XGTACX_negctrl_site270]	6.69

Sequence	gcPBM binding intensity (ln)
TTAAGAATATCTTAGAGTACATTTTATCATCTTAAA [XGTACX_site8298]	5.75
TTTTTTTTTTTTAATTGTACATTTTATATAAACTTT [XGTACX_site6806]	6.17
AATTTATTTTTTTAATGTACATATGGTATAAATATA [XGTACX_site8012]	6.58
TGTTGATTTCTCAAATGTACTTTACTTTTCTTCAGA [XGTACX_site7916]	5.96
AATATATATATATGTACACACTCCAATACATATACA [CACACA_site2682]	6.64
TATATAGGTATCATTACACACATGTATACTTATTTG [CACACA_site7864]	6.47
CATATAAATAAATACACACACACACGCCTTATAATT [CACACA_site7830]	6.96
TATTTAAGAATATGAAGTACATATATTATTTAAAAA [XGTACX_site7897]	6.07
CCTAAAAAAAAGAAATGATATACATATGTATATATA [GTGCAC_negctrl_site100]	6.54
TTTTTCTTTCTCTATTGTACACATGGAAACACATAA [XGTACX_site4601]	7.56
TCTTGTTTTCAAATATGTACATAGAATAGACATTTT [XGTACX_site684]	6.54
AAATATATAAAATATACACACAGTAATATATATATA [CACACA_site1385]	8.58
AAGTTTTATTTAAATTGTACTAAAATTTTTATATTA [XGTACX_site7065]	6.61
ATAAAATGAACAAACACACACACATATATATATATA [CACACA_site2402]	9.22
TATATATAAATATTCAGTACATAGTATTATTAAGTA [XGTACX_site1980]	6.17
AAAAATATGTCCATGAAAAGGATAGGCAGGTAATCA [XGTACX_negctrl_site93]	6.64
AAAAATTAAATAAATTTACACACTAATAATTACATA [CACACA_site8260]	6.3
AAATATATTTTACATTGTACATGAATAAACTATAAA [XGTACX_site2080]	6.53
ACGTTAAAATATTGGGTGCTAACACAATAAAAATAA	6.56
TACAATTTTTTAAATGCACACAAAAGGAATAAATAA [CACACA_site8075]	9.88
AAAAGCAAGTTCCAGGGTACATATATATGAAAAAAC [XGTACX_site2408]	6.85
TAATATATGTATTGCACACCTATAACCATTATTTCT [CACACA_site1498]	10.5

Sequence	gcPBM binding intensity (ln)
ACAAATTTATACTTAAAACACACGTAATCATTTATA [CACACA_site1636]	6.3
TGAATATTCCTATGCACACAAATTAAAATACATAAT [CACACA_site4403]	9.91
TAAAATAATTTATGCATACACACATATATATATATA [CACACA_site4021]	9.28
AAGAAGAAATGCTTTGCATGCAAATTTTATGCCAAC [TGCATGCA_site721]	6.84
CAATTTTTTAAATGCACACAAAAGGAATAAATAAAT [CACACA_site544]	10
AACAATTGGAATAACGCATGCATTTATAATATAGAA [TGCATGCA_site298]	6.93
TCTCAAGTTGTTAAAAAATAAAAACAATAAATCTAA [CACACA_negctrl_site165]	5.91
TACAAAAAAAAAAAATAGATAAAATAATAATCAAAT [TGCATGCA_negctrl_site524]	6.09
ATATATTGAACATATTGTACATTTTGTTAATATTTT [XGTACX_site7622]	6.35
TTTTATAAAATATAATATAATAATATATGTATAATA [CACACA_negctrl_site1788]	6.27
ATATATCTACAAATATGTACACACACACATATATAT [XGTACX_site1075]	6.9
TGTACAACAATTTTTGCACACACCAAAACATAAAAT [CACACA_site1598]	10.1
AGAAAAGAAATTAAATGTACACAACTATAACCAAAT [XGTACX_site8084]	7.29
AAAAAAAAAAAATAAAGTACTAAATAATACATTATA [XGTACX_site6203]	5.87
AAAAAAAAAAAAAAAAAAAAAAAAATCACACATTGG [TGCATGCA_negctrl_site412]	7.21
TTTTGGATGTATTATACATGCATATTATTATAATAT [TGCATGCA_site997]	6.59
AAAAAAAATATCCGACGTACTATTTTCGTAGAAATA [XGTACX_site6292]	6.08
ATCTGAAAAATTAATAGTACAATTAATAATTAAACC [XGTACX_site8523]	6.72
AAACAAAAAAGAAGCACACATATATATATATATATG [CACACA_site2456]	7.17
TATACGCATATATACACACACATATATATATATATA [CACACA_site3416]	9.46
AACAAACAAATAGTTTATTTTGATTTTTTTAAAAAT [CACACA_negctrl_site693]	5.86
ACAAATAAATATTCGCGTACTTATATAATATTACGA [XGTACX_site6428]	6.23
